Measurements as given in article PMC12040169 (PLOS Biology, 2025).
Some of the results follow.

Each compound was assayed on T1, C. trachomatis L2/434/Bu expressing GFP (CTL2-GFP). Conditions: total inclusion area; 28.5 h, 10 µM; inhibitor.
T1 construct: L2/434/Bu GFP intracellular growth in HeLa cells
Set-up: species or system HeLa; C. trachomatis total inclusion area by high-content imaging, normalised to DMSO
Procedure, shortened: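 Bulk GFP and resorufin signals were read first. Wells were then fixed, stained with Hoechst and imaged to detect GFP inclusions and host nuclei. MICs followed the previously described calculation.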

Compound | % of control remaining
COc1ccc(C(=O)c2ccc(N3CCN(C4CC(=O)NC4=O)CC3)cc2)cc1F (stereo not drawn) [CBK268909] | 105.429
COc1ccc(Nc2cc(-c3cc(OC)c(OC)c(OC)c3)ncn2)c(OC)c1 [CBK090759] | 83.9789
CCNC(=O)N1CC2(CCN(CCC(N)=O)CC2)c2ccccc21 [CBK144598T] | 84.2147
O=S(=O)(c1ccccc1)c1cncc(N2CCNCC2)n1 [CBK051078C] | 76.1369
COc1ccc(-c2cc(C(=O)NCC3CCNCC3)cnc2-c2ccc(Cl)cc2)cn1 [CBK036700] | 108.459
CCOc1ccsc1C(=O)Nc1c(OC)cc(F)cc1OC1CCNCC1 [CBK050292T] | 103.824
COC(=O)[C@@H]1CN(C(=O)Nc2ccccc2)CCN1S(C)(=O)=O [CBK289611] | 100.972
CN1CCN(S(=O)(=O)c2ccc(F)cc2)CC1 [CBK050491] | 94.7417
CC1=NN(c2ccccc2)C(=O)C1C(=O)c1ccc(Br)cc1 (stereo not drawn) [CBK067771] | 100.682
CCc1c(C(=O)NCCn2ccnc2C)[nH]c2ccc(F)cc12 [CBK283314] | 77.3671
CCCc1nn(CC(=O)NC2CCC2)c(=O)c2cc3ccsc3n12 [CBK284194] | 62.5747
Cc1ccc(CS(=O)(=O)N(C)C2CCN(C)C(C)C2)c(F)c1 (stereo not drawn) [CBK305484] | 105.6
CCCc1c(O)nc(SCC(=O)NCc2ccco2)[nH]c1=O [CBK073278] | 88.2407
COc1cc(-c2cncc(NC(C)CCCC(C)(C)O)n2)cc(OC)c1OC (stereo not drawn) [CBK065481] | 124.24
Cc1nnc(Sc2nc3ccccc3nc2N2CCCC2)s1 [CBK093751] | 86.9713
COC(=O)CN1C(=O)S/C(=C/c2ccc(OCc3cccc(C(=O)O)c3)c(Cl)c2)C1=O [CBK265262] | 109.834
NCCCc1c(-c2ccc(Cl)cc2Cl)[nH][nH]c1=O [CBK288367] | 89.3121
Cc1cc(C)nc(N2CCC(C(=O)NCc3ccc(Cl)cc3)CC2)n1 [CBK136319] | 78.9114
COc1ccccc1C(=O)N1CCN(c2nc3c(s2)c(C)nn3C)CC1 [CBK306836] | 92.6063
Cc1c(C(=O)N2CCC(n3cncn3)CC2)sc2cccc(F)c12 [CBK305520] | 62.455
COc1ccc2oc(-c3ccccc3)c(C(=O)Nc3nccs3)c2c1 [CBK287767] | 90.2155

Compound | % of control remaining
CCOC(=O)c1cccc(-c2ccc(OC)c(OC)c2)n1 [CBK149247] | 93.5867
CCc1ccccc1Nc1nnc(SC(C)C(=O)N2CCCC2)s1 (stereo not drawn) [CBK295197] | 100.949
COc1ccc(/C=C(\C)C(=O)Nc2c(OC)cc(F)cc2OC2CCNCC2)cc1OC [CBK050353T] | 78.3971
O=C(CN1CCN(S(=O)(=O)c2ccc(F)cc2)CC1)Nc1cccc(C(F)(F)F)c1 [CBK071925] | 77.5703
COc1ccc(C(CNC(=O)Cn2c(-c3cccc(C)c3)n[nH]c2=S)N2CCOCC2)cc1OC (stereo not drawn) [CBK297900] | 108.418
CC(=O)NCCCSCc1cn2cccc(C)c2n1 [CBK304809] | 53.6135
COc1cc(CNC(=O)c2cccnc2Sc2ccc(Cl)cc2)ccn1 [CBK297755] | 80.3105
CCCCOc1nccnc1-c1cnc(OC)nc1OC [CBK106756] | 103.447
CCNc1nccnc1-c1ccccc1Cl [CBK037313] | 76.7354
COc1ccccc1-c1cc(Nc2ccc(N3CCOCC3)cc2)ncn1 [CBK090933] | 95.7887
CC(Cn1cncn1)C(=O)NC(C)C1CC2CCC1C2 (stereo not drawn) [CBK282089] | 90.7582
Cc1cc(=O)n(CC(=O)Nc2ccc3c(c2)OCO3)cn1 [CBK287835] | 92.4701
COc1cc(NC(=O)C(C)Oc2cccc(Cl)c2)c(C(=O)O)cc1OC (stereo not drawn) [CBK268470] | 100.02
CC1=C(C)CC(C(=O)Nc2ccc(C(=O)NCc3cccnc3)cc2)C(C(=O)O)C1 (stereo not drawn) [CBK286567] | 75.1672
NC(=O)C1CCN(C(=S)NC2CC3C=CC2C3)CC1 (stereo not drawn) [CBK085970] | 62.04
CCOC(=O)c1cnc(SCc2nc(N)nc(Nc3ccc(C)cc3)n2)nc1N [CBK266292] | 76.0691
COc1ccc(Oc2cc3n(c(=O)n2)CCc2cc(OC)c(OC)cc2-3)cc1 [CBK291177] | 100.221
CC1(C)CC(=O)C2=C(C1)CC1(C)CC(C)(C)CC2(Nc2ccccn2)C1 (stereo not drawn) [CBK022425] | 97.6668
C[C@H](NC(=O)OC(C)(C)C)C(=O)NC[C@H]1CC[C@H](C(=O)O)CC1 [CBK286741] | 55.0853
C=CCNC(=O)N1CC[C@H]2CC(=O)N(Cc3cccnc3)CC[C@H]2C1 [CBK288791] | 91.5214
CCP(CC)c1ccc(C(=O)O)cc1 [CBK019342B] | 67.0963

Compound | % of control remaining
Cc1ccc(Nc2cc(-c3cccc4cccnc34)ncn2)cc1NS(C)(=O)=O [CBK091152] | 110.638
Cc1nnc(C(C)Sc2nnc(-c3ccc(F)cc3)n2CC2CCCO2)o1 (stereo not drawn) [CBK298298] | 119.107
CN1CCOc2ccccc2C(=O)NC/C=C/CC2(CCCNC2)C1=O (stereo not drawn) [CBK292027] | 92.9201
COc1cc(F)cc(OC2CCNCC2)c1NC(=O)Cc1cn(C)c2ccccc12 [CBK050245T] | 95.1037
CCOc1ccc(S(=O)(=O)N(C)CC(=O)N2CCN(C)CC2)cc1Cl [CBK269865] | 49.0275
O=C(CCCOc1ccccc1)Nc1ccc([N+](=O)[O-])cc1 [CBK263690] | 99.3116
Cc1nc2cc(Cl)ccc2n1CCO [CBK110738] | 92.6189
c1cc(C2CCCCN2Cc2ccc3[nH]ccc3c2)nc(Nc2nccs2)n1 (stereo not drawn) [CBK286109] | 71.4001
COC(=O)[C@H]1CN(C(=O)c2scnc2C)C[C@@H]1c1ccc(F)cc1 [CBK283520] | 55.7584
CCCCc1ccc(NC(=O)CSc2nnc(N)s2)c(C)c1 [CBK057659] | 99.7207
CCCCN1CCCC1c1c[nH]c2ccccc12 (stereo not drawn) [CBK023773G] | 88.21
Cc1cc2nccc(C3CCCN(C(=O)OC(C)(C)C)C3)n2n1 (stereo not drawn) [CBK284037] | 56.5197
Cn1c(=O)n(-c2cccc(Cl)c2)c(=O)n1C [CBK116498] | 88.8358
CS(=O)(=O)c1nc2cccnc2s1 [CBK017260] | 45.4628
CC(=O)Nc1ccc(N2C(=O)CC(N3CCN(Cc4ccc5c(c4)OCO5)CC3)C2=O)cc1 (stereo not drawn) [CBK265217] | 121.096
COc1ccc(N2C(=O)c3ccccc3NC2c2cccc(OCC(=O)Nc3ccccc3)c2)cc1 (stereo not drawn) [CBK265406] | 94.0488
Cc1nc(-c2ccncc2)c2c(C)nn(-c3ccc(F)cc3)c2n1 [CBK288545] | 85.853
CCn1c(=O)n(CC(=O)NC2CCCCC2)c2cccnc21 [CBK283810] | 107.609
CN(C)c1cc(=O)c2cc3c(cc2o1)CCC3 [CBK010017] | 65.7853
COCC1=C(C(=O)OC)[C@H](c2ccc(F)c(F)c2)N(C(=O)NCCCN2CCC(c3cccc(NC(C)=O)c3)CC2)C(=O)N1 [CBK051451C] | 102.246
O=C1N(CN2CCN(C(c3ccccc3)c3ccccc3)CC2)c2ccccc2C12OCCO2 [CBK265537] | 94.2623

Compound | % of control remaining
CN(C)CCCC(=O)Nc1ccc2ncccc2c1 [CBK159824] | 84.5101
O=C(Nc1ccccc1)Nc1ccccc1C(=O)NCc1ccccc1 [CBK265338] | 98.565
CONc1nc(NC(C)(C)C)nc(OCC#N)n1 [CBK263655] | 108.476
Cc1cc(NC(=O)c2cc(Cl)sc2Cl)no1 [CBK010872] | 79.4571
CC1CN(C(=S)Nc2ccc3ccccc3c2)CC(C)O1 (stereo not drawn) [CBK004993] | 9.814
CC(C)(C)c1ccc(NC(=O)C(=O)NCCCn2ccnc2)cc1 [CBK267358] | 89.8913
COCCn1c(CO)nnc1[C@H]1C[C@@H](NC(=O)c2cc(O)ccc2F)C1 [CBK307698] | 49.8312
Cc1onc(-c2ccccc2)c1C(=O)n1cccn1 [CBK287274] | 91.6708
O=C1COC[C@H]([C@H](O)c2ccc(NC(=O)c3cnccn3)cc2)N1 [CBK289673] | 89.2967
Cc1nn(C)cc1S(=O)(=O)NCC1(c2ccccc2)CCCC1 [CBK282766] | 136.938
N#Cc1ccc(-c2nc3cc(Cl)c(F)cc3[nH]2)cc1 [CBK096290] | 86.4042
Cc1cccc(OCC(=O)N2CCN(S(=O)(=O)c3ccc([N+](=O)[O-])cc3)CC2)c1 [CBK264221] | 110.7
COc1cccc2cc(C(=O)NCc3cccc4ccccc34)oc12 [CBK149800] | 95.387
Nc1ncc(-c2ccc(C(=O)N3CCOCC3)cc2)nc1C(=O)Nc1ccccc1 [CBK149153] | 86.0347
Cc1ccc(S(=O)(=O)NCCSc2nc(-c3ccc([N+](=O)[O-])cc3)c[nH]2)cc1 [CBK268518] | 92.1781
COc1cc(-c2nnc(SCC(=O)O)n2-c2ccccc2)cc(OC)c1OC [CBK131695] | 59.7861
CN(CCC1CCOCC1)c1nc2c(c(=O)[nH]1)Cc1ccccc1OC2 [CBK306622] | 80.1148
CCN(CC(=O)NC(C)(C)C)S(=O)(=O)c1cccc(C#N)c1 [CBK306087] | 117.271
